{"source": "the supplement of paper PMC10126150", "note": "Sequences with one replicate were seen in a single cluster, so their values are uncertain.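 Note: ATP exposure 15 min at 22 °C before imaging.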"}
{"test_system": "ATP", "experiment": "switch fluorescence ratio, 500 uM ATP over buffer (Cy3 cluster intensity, sum of 5 cycles each) (fold (ratio)); higher = stronger signal-on switching upon ATP binding; sequences stand for … in TCGTCGGCAGCGTCAGATGTGTATAAGAGACAGTTTTTTTTTTTTTTTTTTTTTTTTT…TC", "details": "aptamer strand: ATP DNA aptamer (quencher-CACCTGGGGGAGTATTGCGGAGGAAGG + anchor), 100 nM annealed; ATP concentration: 500 uM; one replicate", "in_short": "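Five buffer/ATP imaging cycles were run on Cy3-labelled switching-strand clusters on a modified Illumina MiSeq flow-cell, with NaOH stripping and re-annealing between cycles. In each cycle, clusters annealed to 100 nM quencher-labelled ATP aptamer were imaged in selection buffer, then after 15 min with 500 uM ATP at 22 °C. Per cluster, the fluorescence ratio is summed target-cycle over summed buffer-cycle Cy3 intensity, averaged per switch-domain sequence. Only clusters within 100-1000 RFU were kept.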"}
{"sequence": "GGAAGAAAGC", "switch fluorescence ratio": 0.984}
{"sequence": "GGAAGAAAGG", "switch fluorescence ratio": 1.03}
{"sequence": "GGAAGAGATG", "switch fluorescence ratio": 0.956}
{"sequence": "GGAAGATTCC", "switch fluorescence ratio": 1.07}
{"sequence": "GGAAGCATCA", "switch fluorescence ratio": 1.02}
{"sequence": "GGAAGGCTCT", "switch fluorescence ratio": 0.995}
{"sequence": "GGAAGGGAAG", "switch fluorescence ratio": 0.978}
{"sequence": "GGAAGGTGT", "switch fluorescence ratio": 1.25}
{"sequence": "GGAAGTCGCT", "switch fluorescence ratio": 0.95}
{"sequence": "GGAAGTGTGA", "switch fluorescence ratio": 1.04}
{"sequence": "GGAAGTTGGC", "switch fluorescence ratio": 0.965}
{"sequence": "GGAATAAGTC", "switch fluorescence ratio": 1.03}
{"sequence": "GGAATAATGG", "switch fluorescence ratio": 1.03}
{"sequence": "GGAATACGTG", "switch fluorescence ratio": 1.1}
{"sequence": "GGAATAGTTG", "switch fluorescence ratio": 1.06}
{"sequence": "GGAATCTCTA", "switch fluorescence ratio": 0.99}
{"sequence": "GGAATGCAGC", "switch fluorescence ratio": 0.997}
{"sequence": "GGAATGGGGG", "switch fluorescence ratio": 0.954}
{"sequence": "GGAATTTGGT", "switch fluorescence ratio": 1}
{"sequence": "GGACAATATG", "switch fluorescence ratio": 0.931}
{"sequence": "GGACAATGGA", "switch fluorescence ratio": 1.04}
{"sequence": "GGACACCAGC", "switch fluorescence ratio": 1.1}
{"sequence": "GGACATTCTT", "switch fluorescence ratio": 0.998}
{"sequence": "GGACATTTTC", "switch fluorescence ratio": 1.03}
{"sequence": "GGACCACAAG", "switch fluorescence ratio": 1.04}
{"sequence": "GGACCACGCC", "switch fluorescence ratio": 1.08}
{"sequence": "GGACCATAGC", "switch fluorescence ratio": 0.997}
{"sequence": "GGACCGAGGT", "switch fluorescence ratio": 0.978}
{"sequence": "GGACCGCTTT", "switch fluorescence ratio": 1.03}
{"sequence": "GGACCTACTT", "switch fluorescence ratio": 1.26}
{"sequence": "GGACGAGAAC", "switch fluorescence ratio": 1.09}
{"sequence": "GGACGGAAGG", "switch fluorescence ratio": 0.979}
{"sequence": "GGACGGACTG", "switch fluorescence ratio": 1.32}
{"sequence": "GGACGGATGA", "switch fluorescence ratio": 0.997}
{"sequence": "GGACGTCGCC", "switch fluorescence ratio": 1.04}
{"sequence": "GGACGTTTAC", "switch fluorescence ratio": 1.33}
{"sequence": "GGACTAACAT", "switch fluorescence ratio": 1.15}
{"sequence": "GGACTATGAC", "switch fluorescence ratio": 1.02}
{"sequence": "GGACTCCAGA", "switch fluorescence ratio": 1.05}
{"sequence": "GGACTCCGTT", "switch fluorescence ratio": 1.07}
{"sequence": "GGACTCGGCG", "switch fluorescence ratio": 0.926}
{"sequence": "GGACTGACCG", "switch fluorescence ratio": 0.962}
{"sequence": "GGACTGGACC", "switch fluorescence ratio": 1.04}
{"sequence": "GGACTGTAAG", "switch fluorescence ratio": 0.996}
{"sequence": "GGACTTAGGT", "switch fluorescence ratio": 1.02}
{"sequence": "GGACTTAGTC", "switch fluorescence ratio": 1}
{"sequence": "GGACTTGAGT", "switch fluorescence ratio": 1.02}
{"sequence": "GGACTTGGCG", "switch fluorescence ratio": 0.98}
{"sequence": "GGAGAATCAT", "switch fluorescence ratio": 1.01}
{"sequence": "GGAGAATTAA", "switch fluorescence ratio": 1}
{"sequence": "GGAGAGGTGT", "switch fluorescence ratio": 1.04}
{"sequence": "GGAGATGGTC", "switch fluorescence ratio": 1.01}
{"sequence": "GGAGCACT", "switch fluorescence ratio": 1.49}
{"sequence": "GGAGCACTTT", "switch fluorescence ratio": 1.07}
{"sequence": "GGAGCCAGTC", "switch fluorescence ratio": 1.08}
{"sequence": "GGAGCCCTAT", "switch fluorescence ratio": 1.04}
{"sequence": "GGAGCCGTCA", "switch fluorescence ratio": 0.989}
{"sequence": "GGAGCCTCGG", "switch fluorescence ratio": 0.975}
{"sequence": "GGAGCGCGG", "switch fluorescence ratio": 0.96}
{"sequence": "GGAGCTAGGC", "switch fluorescence ratio": 1.68}
{"sequence": "GGAGCTATAA", "switch fluorescence ratio": 3.22}
{"sequence": "GGAGCTATTT", "switch fluorescence ratio": 1.12}
{"sequence": "GGAGCTGCCA", "switch fluorescence ratio": 1.06}
{"sequence": "GGAGCTGTCT", "switch fluorescence ratio": 0.989}
{"sequence": "GGAGGAAAG", "switch fluorescence ratio": 1.04}
{"sequence": "GGAGGACGTG", "switch fluorescence ratio": 1.01}
{"sequence": "GGAGGACTAC", "switch fluorescence ratio": 1.07}
{"sequence": "GGAGGAGTCA", "switch fluorescence ratio": 0.994}
{"sequence": "GGAGGGATGT", "switch fluorescence ratio": 1.01}
{"sequence": "GGAGGGCGCT", "switch fluorescence ratio": 1.01}
{"sequence": "GGAGGGCTGA", "switch fluorescence ratio": 0.949}
{"sequence": "GGAGGGTTGA", "switch fluorescence ratio": 1.03}
{"sequence": "GGAGTAGCTT", "switch fluorescence ratio": 0.972}
{"sequence": "GGAGTAGGCG", "switch fluorescence ratio": 1.04}
{"sequence": "GGAGTGATGA", "switch fluorescence ratio": 1.11}
{"sequence": "GGAGTTAGTA", "switch fluorescence ratio": 0.972}
{"sequence": "GGAGTTGACT", "switch fluorescence ratio": 1}
{"sequence": "GGAGTTGGTG", "switch fluorescence ratio": 0.966}
{"sequence": "GGATACCCGA", "switch fluorescence ratio": 1.04}
{"sequence": "GGATACTGCT", "switch fluorescence ratio": 0.993}
{"sequence": "GGATAGCTCA", "switch fluorescence ratio": 0.983}
{"sequence": "GGATATAAAC", "switch fluorescence ratio": 1}
{"sequence": "GGATATGTCT", "switch fluorescence ratio": 0.961}
{"sequence": "GGATCATCGG", "switch fluorescence ratio": 0.982}
{"sequence": "GGATCCCTGC", "switch fluorescence ratio": 1.02}
{"sequence": "GGATCCGTTA", "switch fluorescence ratio": 0.995}
{"sequence": "GGATCCTGCT", "switch fluorescence ratio": 0.955}
{"sequence": "GGATCGGTTC", "switch fluorescence ratio": 1.02}
{"sequence": "GGATCTATCG", "switch fluorescence ratio": 0.996}
{"sequence": "GGATCTCTGG", "switch fluorescence ratio": 1.01}
{"sequence": "GGATCTGAGT", "switch fluorescence ratio": 1.03}
{"sequence": "GGATCTGTG", "switch fluorescence ratio": 0.997}
{"sequence": "GGATCTTGAG", "switch fluorescence ratio": 1.02}
{"sequence": "GGATGAAAAG", "switch fluorescence ratio": 0.986}
{"sequence": "GGATGAAAGG", "switch fluorescence ratio": 1.02}
{"sequence": "GGATGAATCC", "switch fluorescence ratio": 0.966}
{"sequence": "GGATGATTGT", "switch fluorescence ratio": 0.997}
{"sequence": "GGATGCAGGT", "switch fluorescence ratio": 1.01}
{"sequence": "GGATGCCGAA", "switch fluorescence ratio": 0.966}
{"sequence": "GGATGCGGAA", "switch fluorescence ratio": 0.991}
